# In the supplement of paper PMC7826260:
# The other results are listed elsewhere or left out. Each Rep nickase domain was tested in vitro on the same pool of single strands (1 h at 37 °C, 3 µM enzyme); the outer parts of the 90-letter strands are left off. Uncut reads are compared with the no-enzyme pool on a log2 scale; the lower, the more was cut; hits are not called. The scaling is to total reads; where an enzyme cuts many sequences, the uncut ones exceed 0.
# Legend:
# Experiment in all cases: uncleaved DNA left, log2 of reads against the no-enzyme library (log2 ratio); higher = less cleavage (more negative = more Rep cleavage of the k-mer); sequences stand for … in CTCGTCCG…ACCGGAGA
# [1] = tested on: T1, Rep nickase domain of Muscovy duck circovirus
# T1 sequence (residues 1-111 of Rep, tag left off): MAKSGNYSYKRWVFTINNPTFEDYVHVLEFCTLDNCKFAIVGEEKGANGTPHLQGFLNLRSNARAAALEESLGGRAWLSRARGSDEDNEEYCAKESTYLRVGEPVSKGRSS
# Method: (§1)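 A pool of 90-nt single-stranded DNAs with seven random bases just before the constant AC of the nick site (name = the seven bases) was cut by 3 µM recombinant His6-SUMO-tagged Rep nickase domain (300 nM DNA, 50 mM HEPES pH 8.0, 50 mM NaCl, 1 mM MnCl2, 1 h, 37 °C, three replicates). Uncut DNA was amplified and sequenced.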
# [2] = tested on: T2, Rep nickase domain of banana bunchy top virus
# T2 sequence (residues 1-94 of Rep, tag left off): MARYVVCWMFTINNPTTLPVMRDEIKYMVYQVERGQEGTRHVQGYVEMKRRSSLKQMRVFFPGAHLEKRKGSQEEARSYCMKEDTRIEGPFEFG
# Method: as §1
# [3] = tested on: T3, Rep nickase domain of cabbage leaf curl virus
# T3 sequence (residues 1-116 of Rep, tag left off): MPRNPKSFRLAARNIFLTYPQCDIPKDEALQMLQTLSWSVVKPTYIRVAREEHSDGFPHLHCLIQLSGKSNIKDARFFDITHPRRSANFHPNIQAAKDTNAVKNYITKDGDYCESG
# Method: as §1
# [4] = tested on: T4, Rep nickase domain of chickpea chlorotic dwarf virus
# T4 sequence (residues 1-124 of Rep, tag left off): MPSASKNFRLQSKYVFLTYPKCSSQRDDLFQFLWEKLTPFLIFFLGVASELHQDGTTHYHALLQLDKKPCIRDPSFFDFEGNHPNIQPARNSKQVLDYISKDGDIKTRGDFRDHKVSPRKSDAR
# Method: as §1
# [5] = tested on: T5, Rep nickase domain of faba bean necrotic yellows virus
# T5 sequence (residues 1-98 of Rep, tag left off): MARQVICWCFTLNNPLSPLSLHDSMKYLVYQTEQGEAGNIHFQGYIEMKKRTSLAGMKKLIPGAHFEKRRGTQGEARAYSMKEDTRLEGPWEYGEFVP
# Method: as §1
# [6] = tested on: T6, Rep nickase domain of maize striate mosaic virus
# T6 sequence (residues 1-117 of Rep, tag left off): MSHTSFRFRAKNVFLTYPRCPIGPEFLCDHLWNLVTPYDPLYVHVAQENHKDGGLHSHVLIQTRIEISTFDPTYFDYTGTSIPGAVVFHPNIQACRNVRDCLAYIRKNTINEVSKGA
# Method: as §1
# [7] = tested on: T7, Rep nickase domain of porcine circovirus 2
# T7 sequence (residues 2-116 of Rep, tag left off): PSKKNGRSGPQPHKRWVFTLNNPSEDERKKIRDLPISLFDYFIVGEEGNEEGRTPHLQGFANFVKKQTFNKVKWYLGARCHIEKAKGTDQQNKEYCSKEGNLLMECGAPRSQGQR
# Method: as §1
# [8] = tested on: T8, Rep nickase domain of tomato golden mosaic virus
# T8 sequence (residues 1-124 of Rep, tag left off): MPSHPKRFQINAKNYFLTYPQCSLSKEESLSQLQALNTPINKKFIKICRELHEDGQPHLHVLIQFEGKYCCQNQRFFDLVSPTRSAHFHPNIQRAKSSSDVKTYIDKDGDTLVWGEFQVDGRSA
# Method: as §1
# [9] = tested on: T9, Rep nickase domain of tomato yellow leaf curl virus
# T9 sequence (residues 1-136 of Rep, tag left off): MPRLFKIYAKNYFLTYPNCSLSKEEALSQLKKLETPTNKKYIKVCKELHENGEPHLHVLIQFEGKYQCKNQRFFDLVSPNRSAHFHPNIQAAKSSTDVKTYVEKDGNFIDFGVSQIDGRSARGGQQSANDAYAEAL
# Method: as §1
# [10] = tested on: T10, Rep nickase domain of wheat dwarf virus
# T10 sequence (residues 1-137 of Rep, tag left off): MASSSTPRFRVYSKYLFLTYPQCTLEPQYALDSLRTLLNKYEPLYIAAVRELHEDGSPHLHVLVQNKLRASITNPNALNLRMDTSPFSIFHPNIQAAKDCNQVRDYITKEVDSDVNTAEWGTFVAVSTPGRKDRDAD
# Method: as §1
Sequence,uncleaved DNA left (log2) [1],uncleaved DNA left (log2) [2],uncleaved DNA left (log2) [3],uncleaved DNA left (log2) [4],uncleaved DNA left (log2) [5],uncleaved DNA left (log2) [6],uncleaved DNA left (log2) [7],uncleaved DNA left (log2) [8],uncleaved DNA left (log2) [9],uncleaved DNA left (log2) [10]
CTAAAGT,-0.0398,0.0153,-0.00497,-0.421,0.0307,-1.07,-0.0551,-0.0242,-0.0471,-0.107
AGTGCTG,-0.0484,0.0306,0.0415,0.695,-0.145,1.6,0.0203,0.0745,-0.139,-0.0339
TCTGCTG,0.0784,-0.0861,0.0706,0.692,-0.00934,0.677,0.171,0.159,-0.00453,-0.0154
CGGACTG,0.138,0.202,0.24,0.872,0.117,1.89,0.0787,0.109,0.0941,0.258
TTACTAG,-0.0972,-0.0917,-0.974,-1.55,-0.084,-1.31,0.0892,-0.199,-0.0928,-0.175
GGGTCTA,0.1,0.0761,0.841,1.97,0.0332,2.28,0.222,0.117,0.11,0.262
TACGCGA,-0.0698,0.0105,-0.857,-0.566,0.0378,-0.89,0.0384,-0.137,-0.0543,-0.0973
AATTCTC,-2.94,-1.76,0.0438,-0.499,0.0165,-0.539,-2.79,-0.0469,0.0661,0.098
GAAGATG,-0.00415,-0.112,0.197,1.19,-0.103,1.35,0.147,0.0226,-0.231,0.0488
ACCATAG,-0.0388,0.132,-0.0549,1.1,0.0183,0.334,0.261,-0.0545,0.113,-0.0986
CCTGCAA,0.000978,0.0679,-0.229,-0.629,0.0763,-0.972,0.159,-0.0128,0.0208,-0.0252
GAACGTG,-0.077,-0.0946,-0.0604,-0.024,-0.0121,-0.196,0.022,-0.0354,-0.201,0.00026
AATGTTC,0.00991,-0.0595,-0.0896,-1.87,-0.00164,-0.434,-0.0543,-0.0721,-0.0427,-0.0491
ATTTCAT,-0.144,-0.138,0.0413,-0.867,0.0205,-0.551,-0.698,-0.0376,0.0881,0.15
TGACCCA,0.0909,0.104,0.362,0.554,0.239,1.57,0.0662,-0.00107,0.174,-0.0722
GAAAAGA,0.0185,0.0365,0.217,0.347,0.0114,-0.139,0.131,0.0833,0.056,0.0665
TATGTGA,-0.0551,-0.0331,-0.358,-0.92,0.0762,-1.04,0.109,-0.125,-0.0462,0.0136
TGTAGCA,-0.0215,0.0411,-0.0213,-0.538,-0.064,-0.601,-0.2,-0.0492,0.0738,-0.00966
TCTCGAG,-0.0588,-0.257,-0.000215,0.0228,-0.168,-0.978,0.0249,-0.159,-0.0765,-0.16
CGTCCGA,-0.0128,0.0122,0.0289,0.411,-0.0267,0.37,-0.0286,0.0955,0.0522,-0.014
GAGTGCC,0.0854,-0.0559,0.0888,0.185,-0.0328,-0.116,-0.698,-0.0926,0.051,0.00752
TATGAAC,0.0306,0.0114,0.0635,-0.0749,0.0355,-0.231,0.0702,0.0375,0.0727,0.0297
TTACTTC,-0.0406,-0.0628,-0.076,-2.11,-0.00912,-0.618,-0.111,-0.142,-0.016,-0.0303
AGCTGGC,0.0954,0.0141,-0.0158,0.802,-0.0347,0.202,0.15,0.0717,-0.0195,0.0249
CGCGAGC,0.00527,0.0776,0.111,0.553,0.0164,0.0535,0.0083,0.0509,-0.137,-0.091
TGTGATT,-0.0113,-0.0872,0.0672,-0.972,-0.204,0.588,-1.05,-0.0387,0.00291,-0.14
CCAGAAC,-0.131,-0.00994,0.115,-0.347,0.057,-0.598,0.0939,0.0135,-0.138,-0.0489
TCGTTAC,-0.0175,-0.165,-0.00893,-1.49,-0.187,-0.531,-0.0639,-0.173,-0.167,-0.208
GGTGGTT,0.128,0.0465,0.546,1.17,-0.052,1.95,0.123,-0.0155,0.00924,0.134
